# Source: the BET-seq Pho4 binding data (Le et al. 2018)
# The other results are listed elsewhere or left out. Values were computed here from the reads of four pooled replicates and scatter widely.
# Target: T1, Pho4 (S. cerevisiae) (UniProt P07270)
# T1 sequence: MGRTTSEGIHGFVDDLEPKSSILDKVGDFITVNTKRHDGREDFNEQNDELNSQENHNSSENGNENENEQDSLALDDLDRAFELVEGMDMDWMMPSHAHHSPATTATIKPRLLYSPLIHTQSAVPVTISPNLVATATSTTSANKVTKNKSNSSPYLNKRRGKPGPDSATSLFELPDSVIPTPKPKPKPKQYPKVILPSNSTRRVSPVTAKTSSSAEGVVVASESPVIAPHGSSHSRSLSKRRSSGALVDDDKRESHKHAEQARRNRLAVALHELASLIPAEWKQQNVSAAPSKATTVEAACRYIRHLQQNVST
# Test: relative binding free energy (BET-seq); higher = weaker binding
# Conditions: reference: library average
row,Sequence,relative binding free energy [kcal/mol]
1,AACGGCACGTGGCGGT,-0.2
2,CGAGACACGTGGGGCG,-0.15
3,TGCTTCACGTGTGTGC,0.31
4,GTGTGCACGTGTCAGG,-0.03
5,AAGGGCACGTGCGATT,-0.09
6,GTTGGCACGTGTAGAC,0.05
7,TTGTGCACGTGCCATT,-0.02
8,CGGGCCACGTGGTGTA,-0.23
9,GTTGACACGTGGATAT,0.19
10,GATGGCACGTGCTTGA,-0.06
11,AATATCACGTGAAAGT,0.4
12,GTAATCACGTGGGGAT,0.06
13,GATTTCACGTGGTTCG,0.25
14,TTATGCACGTGTAGCA,-0.06
15,AGTGTCACGTGTTCAA,-0.01
16,TTCGTCACGTGTGTGA,0.16
17,TTTTTCACGTGCGTTT,0.36
18,AATGTCACGTGAAGTG,0.26
19,CATTTCACGTGGTGTA,0.11
20,CGTCTCACGTGGGTAT,0.02
21,TGATACACGTGAGAGG,0.18
22,GTTATCACGTGCTGGT,0.09
23,GCGGTCACGTGTGTAG,0.21
24,TCAGGCACGTGCGGGT,-0.36
25,CTGGACACGTGCGGTA,-0.03
26,GGGTTCACGTGGGATG,0.22

row,Sequence,relative binding free energy [kcal/mol]
1,GTGATCACGTGCCGGT,0.04
2,ATTCTCACGTGATTGG,0.3
3,TGTTGCACGTGGGGTA,-0.16
4,TTGCGCACGTGCAGTT,-0.1
5,TGTTTCACGTGGGCAA,0.22
6,TGCGCCACGTGATGGT,0.13
7,ATTGCCACGTGAATGT,0.03
8,TGATACACGTGTATAT,0.03
9,GATAACACGTGAGTTT,0.24
10,GGTCGCACGTGGGGGG,-0.1
11,GGGTCCACGTGGGGTT,-0.02
12,TTTATCACGTGTTCTT,0.12
13,TTGGTCACGTGGTTAC,0.2
14,CGTAGCACGTGATAGG,0.03
15,ACAATCACGTGGTGGT,0.09
16,AGGATCACGTGTTAGA,0.18
17,TAGGTCACGTGACGGT,0.08
18,CTGTACACGTGAGAGT,0.22
19,TATTTCACGTGTCGGT,0.33
20,GGGCTCACGTGGCGTA,0.19
21,GCGTGCACGTGGTGGC,-0.05
22,ATTGTCACGTGTTGCG,0.06
23,CTGGTCACGTGTATTG,0.06
24,ATTTTCACGTGCTGTT,0.3
25,GGATGCACGTGAGGTA,0.22
26,TAAGACACGTGGCGTT,-0.12

row,Sequence,relative binding free energy [kcal/mol]
1,CTAGGCACGTGTAGTG,0.07
2,GGATACACGTGTTTAG,0.23
3,TTGTACACGTGTAAAG,0.07
4,ATAGTCACGTGGGGCA,-0.05
5,TGCAGCACGTGTGGAT,0.08
6,ATTAGCACGTGATTTA,-0.16
7,TATGGCACGTGTGGAT,0.02
8,GGGGACACGTGGTTCT,0.04
9,AGGCACACGTGGAAGG,0.03
10,TGCGGCACGTGTTAGG,-0.12
11,AGAGGCACGTGCGAGG,-0.11
12,GGCGGCACGTGTCGGC,-0.01
13,GTGGGCACGTGGAGTG,-0.05
14,GATGGCACGTGGGCGG,-0.2
15,TTATTCACGTGGCTGA,0.2
16,GAAGTCACGTGGGGTA,-0.04
17,TTATTCACGTGCGTGT,0.16
18,AATAGCACGTGTGAGA,0.03
19,GGTATCACGTGAGAGG,0.24
20,GAGGGCACGTGGGGTG,-0.18
21,TGATTCACGTGGCGAG,0.4
22,TTGGCCACGTGGATGT,-0.08
23,TAAGGCACGTGGGGCT,-0.29
24,TTACGCACGTGATTGG,-0.04
25,GGAAACACGTGTTGGA,0.05
26,GTTATCACGTGGTACG,0.04

row,Sequence,relative binding free energy [kcal/mol]
1,AAGGTCACGTGTCGCG,0.2
2,TGTATCACGTGGTGAC,0.05
3,GTGGACACGTGCTGTT,0.04
4,AATGTCACGTGTGCAG,0.03
5,AGTATCACGTGGCTGT,0.07
6,CTGTTCACGTGGTAGA,0.28
7,CGGTGCACGTGAGTAT,0.13
8,GGGCACACGTGAGTGT,0.1
9,TGTTTCACGTGGTAAC,0.29
10,TCTGTCACGTGTTGTA,0
11,ATTCTCACGTGAGGAT,0.33
12,TGTTGCACGTGAGCGT,0.05
13,TTATACACGTGAAGAG,0.46
14,GGTACCACGTGTTGGG,-0.21
15,ATAATCACGTGTATTG,0.2
16,ATAGTCACGTGAGTTA,0.34
17,TGGTGCACGTGCTTGG,-0.01
18,GGCTTCACGTGGGTTA,0.13
19,GGGCGCACGTGTTGTG,-0.09
20,TAGCGCACGTGGTTTG,-0.21
21,GCGGGCACGTGAAGGG,0.11
22,GTGTACACGTGTGGGA,0.15
23,TTAGGCACGTGAGTAG,0.05
24,AGTAACACGTGCAGGT,0.12
25,ACCGTCACGTGGTTGG,0.07
26,CATTGCACGTGTGGTT,0.15

row,Sequence,relative binding free energy [kcal/mol]
1,ATACTCACGTGTGGGT,-0.07
2,ACTGTCACGTGTTGAT,0.17
3,ATGACCACGTGGAGGT,-0.06
4,ACGGTCACGTGATGGT,0.27
5,TATTTCACGTGTCTTG,0.19
6,TTCATCACGTGTCGGG,0.23
7,TTAATCACGTGTCTGG,0.05
8,GTAGGCACGTGCGAGA,-0.07
9,AGGTACACGTGCTAGT,-0.03
10,AGGGTCACGTGAGTAG,0.27
11,TTCGGCACGTGCTTGT,-0.22
12,CGTTGCACGTGAGAAG,0.24
13,GTCAACACGTGGGGAT,0.08
14,TCATGCACGTGAGAGG,0.18
15,GTGTGCACGTGGGTGG,-0.09
16,GATGCCACGTGTTTTG,-0.08
17,AATCACACGTGGGGGT,-0.01
18,GCTTGCACGTGGGGGA,-0.07
19,GGTATCACGTGTCATG,0.08
20,CTTGACACGTGAGTTG,0.17
21,AGTGACACGTGTGTTT,-0.05
22,CTGGGCACGTGTTCGA,0
23,AATCGCACGTGGGCGG,-0.14
24,GTTGCCACGTGGGGTT,-0.19
25,GTTCTCACGTGGTTGT,0.17
26,CTGTTCACGTGTGTAA,0.36

row,Sequence,relative binding free energy [kcal/mol]
1,TGATTCACGTGTTATC,0.34
2,GGTTACACGTGGTCGT,-0.01
3,TGTACCACGTGTGGTT,-0.1
4,TATGGCACGTGATGTC,-0.1
5,AGGTTCACGTGGCCGT,0.23
6,TGTTTCACGTGGTGTC,0.14
7,GGTAGCACGTGGTTGT,-0.13
8,TAGGGCACGTGAAGCT,0.14
9,CGTGTCACGTGCATGT,-0.05
10,GGGATCACGTGCGGAT,0.07
11,AGTGTCACGTGGTTCA,-0.08
12,GACGGCACGTGACGGT,0.17
13,TAATTCACGTGTTTTC,0.26
14,TTTGCCACGTGTTTCA,-0.02
15,GAGATCACGTGTGCGT,0.17
16,AAATTCACGTGTTGTT,0.21
17,TTTGGCACGTGGCCTT,-0.23
18,ATGATCACGTGTATAT,0.22
19,ATAGGCACGTGGGTTG,-0.17
20,GGTAGCACGTGTGGAA,0.17
21,TATAACACGTGGCGTT,-0.08
22,AGGCGCACGTGTCGTG,-0.17
23,ATTTCCACGTGTTGGC,0.17
24,TGGCGCACGTGTTGAT,-0.08
25,TTAACCACGTGGGGTA,-0.24
26,GTTCGCACGTGGGTAT,0.03

row,Sequence,relative binding free energy [kcal/mol]
1,TTGGTCACGTGAAGCT,0.44
2,GGTATCACGTGCTATG,0.08
3,AGCTGCACGTGGAGGG,-0.16
4,GTTGCCACGTGATTTG,0
5,AGGCGCACGTGGTTGG,-0.04
6,CTTTGCACGTGGAGCG,0.13
7,TTTGGCACGTGTGCGG,-0.03
8,TGAGGCACGTGATATA,-0.04
9,GTAAACACGTGATTGG,0.11
10,GGATTCACGTGGATAT,0.33
11,GGGTGCACGTGTATTA,0.1
12,TAAATCACGTGGCTGG,0.04
13,GTGCGCACGTGAGGGC,0.13
14,TACTTCACGTGTTAAG,0.24
15,GATTTCACGTGCGGGA,0.38
16,GATGACACGTGGGGTG,-0.13
17,CGGTACACGTGAGTTG,0.29
18,CTGATCACGTGTGGGG,0.24
19,GAGTTCACGTGAGGAG,0.48
20,TTTAGCACGTGAGGTG,0.1
21,ATAGGCACGTGTTTGG,-0.21
22,GATATCACGTGGGCGG,0.08
23,GGATGCACGTGGATGA,-0.08
24,CAGGTCACGTGTTGGC,0.06
25,AACTGCACGTGGGTAG,-0.18
26,TTTCTCACGTGTTGAG,0.3

row,Sequence,relative binding free energy [kcal/mol]
1,GTCTACACGTGATTGT,0.17
2,TATGGCACGTGAGGAG,0.14
3,GGCTTCACGTGGCGGA,0.18
4,TTGGGCACGTGTGATG,0
5,ATATTCACGTGGGGGC,0.22
6,ATGATCACGTGAGGTA,0.31
7,GGGGACACGTGAGTGG,0.24
8,GTTGACACGTGAGAGG,0.28
9,TTTCTCACGTGAGCTT,0.32
10,ACATTCACGTGTTGTT,0.25
11,TGGTTCACGTGGCGTT,0.21
12,GGATTCACGTGGGCCT,0.15
13,TAGGGCACGTGAGAAT,0.2
14,TCATTCACGTGATGGG,0.55
15,AAGGGCACGTGTTAAT,-0.08
16,GGTTCCACGTGGGAGG,0.08
17,CGTGCCACGTGGCGGG,-0.24
18,AGTGTCACGTGGCTTA,-0.11
19,GGGGTCACGTGAATGT,0.38
20,AGGGTCACGTGGTCTA,0.02
21,GATGGCACGTGTAAAT,0.1
22,CAGTGCACGTGGGTGT,-0.24
23,TGCTGCACGTGCGTGA,-0.07
24,TGGGCCACGTGCCGTG,-0.17
25,AGAGACACGTGGGTCT,-0.14
26,CGATTCACGTGGGGCG,0.15

row,Sequence,relative binding free energy [kcal/mol]
1,GCGTGCACGTGATTAT,0.21
2,GTTGTCACGTGCGCAG,0
3,AGTGACACGTGTGAGA,0.12
4,CGTGGCACGTGTCGTC,0.04
5,TGTTGCACGTGACGTT,-0.01
6,TGCTGCACGTGAAAGT,0.15
7,AGCTGCACGTGGGTGG,-0.15
8,TATGCCACGTGTGGGT,-0.08
9,AGCTTCACGTGATATG,0.31
10,AGAGGCACGTGTGGTT,-0.02
11,AGGCTCACGTGATGGT,0.26
12,AGCTACACGTGGTGGG,-0.03
13,CTAGACACGTGTGTTG,-0.04
14,GGTGGCACGTGAGTTC,0.2
15,ATTATCACGTGAGAGG,0.35
16,TTTCGCACGTGGAGTA,0.05
17,GTAAGCACGTGCGTGT,-0.15
18,TTTGGCACGTGTTATG,-0.01
19,GGATACACGTGTGGGT,0.11
20,AGTCGCACGTGATCGG,0.15
21,TAACGCACGTGGGTTA,-0.23
22,TCGCTCACGTGTGTTG,0.23
